According to the RNAGym collection of RNA variant scans (doi:10.1093/nar/gkz1192):
The source gives no read counts; variants with many changes may rest on few reads.

B1: CPEB3 Ribozyme (parent)
chain: UAACAGGGGGCCACAGCAGAAGCGUUCACGUCGCAGCCCCUGUCAGAUUCUGGUGAAUCUGCGAAUUCUGCUGUAUAUCUC

Variants of: B1
Assay: self-cleavage, relative activity (ratio to wild type); higher = more cleavage; in vitro, sequencing
Outline: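 Libraries of CPEB3 self-cleaving ribozyme mutants came from rounds of error-prone PCR and carried barcodes, which DNA sequencing matched to variants. In vitro transcription used T7 RNA polymerase at 37°C for 5 hours, with a further 15 min in DNase I before EDTA stopped the reaction; the ribozymes cleaved during both steps. The RNA was reverse transcribed with template switching and sequenced on Illumina. Relative activity is the cleaved/total read fraction of a variant divided by that of the unmutated ribozyme, averaged over three batches with at least 5 reads.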

| Variant | self-cleavage |
| --- | --- |
| UAACAGGGGGCCACAGCAGAAGCGUUCACGUCGCAGCCCCAUUCAGAUUCAGGUGAAUCUGCGAAUUCUGCUGUAUGUCUC [U41A G42U U51A A77G] | 0.21 |
| UAACAGGGGGCCACAGCAGAAGCGUUCACGUCGCAGCCCCAGUCACAUUCUGCCGAAUCUGCGAAUUCUGCUGUACAUCUC [U41A G46C G53C U54C U76C] | 0.11 |
| UAACAGGGGGCCACAGCAGAAGCGUUCACGUCGCAGCCCCAGUCAGAUUCUAGUGAAUCUGCGAAUUCUGCUGUUUAUCUC [U41A G52A A75U] | 0.56 |
| UAACAGGGGGCCACAGCAGAAGCGUUCACGUCGCAGCCCCAGUCAGAUUCUUGUGAAUCUGCGAAUUCUGCCGUAUAUCUC [U41A G52U U72C] | 0.31 |
| UAACAGGGGGCCACAGCAGAAGCGUUCACGUCGCAGCCCCAGUCAGAUUCUGAUGGAUCUGCGAAAUCUGCUGUACAUCCC [U41A G53A A56G U66A U76C U80C] | 0.1 |
| UAACAGGGGGCCACAGCAGAAGCGUUCACGUCGCAGCCCCAGUCAGAUUCUGAUGAAUCUGCGAAUUCUUCUGUAUAUCUC [U41A G53A G70U] | 0.14 |
| UAACAGGGGGCCACAGCAGAAGCGUUCACGUCGCAGCCCCAGUCAGAUUCUGUUGAGUCUGCGAAUUCUGCUGCAUAUCUC [U41A G53U A57G U74C] | 0.36 |
| UAACAGGGGGCCACAGCAGAAGCGUUCACGUCGCAGCCCCAGUCAGAUUCUGGUAAACCUGCGAAUUCUGCUGUAUAUCUC [U41A G55A U58C] | 0.05 |
| UAACAGGGGGCCACAGCAGAAGCGUUCACGUCGCAGCCCCAGUCAGAUUCUGGUAAAUCUGCGAAUUCUGCUGCAUAUCUC [U41A G55A U74C] | 0.3 |
| UAACAGGGGGCCACAGCAGAAGCGUUCACGUCGCAGCCCCAGUCAGAUUCUGGUUAAUCUGCGAACUCUGCCGUAUAGCUC [U41A G55U U66C U72C U78G] | 0.04 |
| UAACAGGGGGCCACAGCAGAAGCGUUCACGUCGCAGCCCCAGUCAGAUUCUGGUGAAUCUACGAAUUCCGCCGUAUAUCCC [U41A G61A U69C U72C U80C] | 0.17 |
| UAACAGGGGGCCACAGCAGAAGCGUUCACGUCGCAGCCCCAGUCAGAUUCUGGUGAAUCUACGAAUUCUGCAGUAUAUCUC [U41A G61A U72A] | 0.44 |
| UAACAGGGGGCCACAGCAGAAGCGUUCACGUCGCAGCCCCAGUCAGAUUCUGGUGAAUCUGCUAAUUCUGCUGUAUAUCCC [U41A G63U U80C] | 0.49 |
| UAACAGGGGGCCACAGCAGAAGCGUUCACGUCGCAGCCCCAGUCAGAUUCUGGUGAAUCUGCGAAUUCUUCUGUAAAUCUC [U41A G70U U76A] | 0.08 |
| UAACAGGGGGCCACAGCAGAAGCGUUCACGUCGCAGCCCCAGUCAGAUUCUGGUGAAUCUGCGAAUUCUGCUAUAUACCUC [U41A G73A U78C] | 0.41 |
| UAACAGGGGGCCACAGCAGAAGCGUUCACGUCGCAGCCCCAGACAGAUUCUGGUGGAUCUGCGAAUUCAGCUGUACAUCUC [U41A U43A A56G U69A U76C] | 0.11 |
| UAACAGGGGGCCACAGCAGAAGCGUUCACGUCGCAGCCCCAGACAGAUUCUGGUGAAUCUGCGGGUCCUGCUGUAUAUCUC [U41A U43A A64G A65G U67C] | 0.07 |

| Variant | self-cleavage |
| --- | --- |
| UAACAGGGGGCCACAGCAGAAGCGUUCACGUCGCAGCCCCAGACAGAUUCUGGUGAAUCUGCGAGUUCUGCUGUAUAUCUC [U41A U43A A65G] | 0.17 |
| UAACAGGGGGCCACAGCAGAAGCGUUCACGUCGCAGCCCCAGACAGAUUCUGGUGAAUCUGCGAAUUCUGCUGUCUAUCUC [U41A U43A A75C] | 0.23 |
| UAACAGGGGGCCACAGCAGAAGCGUUCACGUCGCAGCCCCAGACAGACUCUGGUGAAUCUGCGAAUUCUGCUGUAUAUCUC [U41A U43A U48C] | 0.36 |
| UAACAGGGGGCCACAGCAGAAGCGUUCACGUCGCAGCCCCAGACAGACUCUGGUGAAUCUGUGAAUUCUGCUGUAUAUCUC [U41A U43A U48C C62U] | 0.23 |
| UAACAGGGGGCCACAGCAGAAGCGUUCACGUCGCAGCCCCAGACAGACUCUGGUGAACCUGUGAAUUCUCCUGUAUAUCAC [U41A U43A U48C U58C C62U G70C U80A] | 0.1 |
| UAACAGGGGGCCACAGCAGAAGCGUUCACGUCGCAGCCCCAGACAGAUUCUGGUGAAUCUGCGAAUUCCGCCGUAUAUCUC [U41A U43A U69C U72C] | 0.09 |
| UAACAGGGGGCCACAGCAGAAGCGUUCACGUCGCAGCCCCAGCCGGAUUCUGGUGAAUCUGCGAAUUCUGCUGUAUAUCUC [U41A U43C A45G] | 0.18 |
| UAACAGGGGGCCACAGCAGAAGCGUUCACGUCGCAGCCCCAGCCAGAUUCUGGUGGAUCUGCGAAUUCUGCUGUAUAUCUC [U41A U43C A56G] | 0.13 |
| UAACAGGGGGCCACAGCAGAAGCGUUCACGUCGCAGCCCCAGCCAGAUUCUGGUGAAUCUGCGUAUUCUGCUGUAUAUCUC [U41A U43C A64U] | 0.15 |
| UAACAGGGGGCCACAGCAGAAGCGUUCACGUCGCAGCCCCAGCCACAAUCUGUCGAAUCUGCGAAUUCUGCUGUACAUCUC [U41A U43C G46C U48A G53U U54C U76C] | 0.15 |
| UAACAGGGGGCCACAGCAGAAGCGUUCACGUCGCAGCCCCAGCCACAUUCUGGUGAAUCUGCGAAUCCUGCCGUAUAUCUC [U41A U43C G46C U67C U72C] | 0.33 |
| UAACAGGGGGCCACAGCAGAAGCGUUCACGUCGCAGCCCCAGCCAUAUUCUGGCGAAUCUGCGAAUUCUGCCGUACAUCUC [U41A U43C G46U U54C U72C U76C] | 0.1 |
| UAACAGGGGGCCACAGCAGAAGCGUUCACGUCGCAGCCCCAGCCAGAUUCUGAUGAAUCUGCGAAUUCUGCUGUAUAUCUC [U41A U43C G53A] | 0.25 |
| UAACAGGGGGCCACAGCAGAAGCGUUCACGUCGCAGCCCCAGCCAGACUCUGGUGAAUCUGCGAAUCCCGCUGUAUAUCUC [U41A U43C U48C U67C U69C] | 0.22 |
| UAACAGGGGGCCACAGCAGAAGCGUUCACGUCGCAGCCCCAGCCAGAUUCUGGUGAAUCUGCGAAACCUGCUGUAUAUCUC [U41A U43C U66A U67C] | 0.13 |
| UAACAGGGGGCCACAGCAGAAGCGUUCACGUCGCAGCCCCAGCCAGAUUCUGGUGAAUCUGCGAAUUCUGCCGUAUAUCCC [U41A U43C U72C U80C] | 0.43 |
| UAACAGGGGGCCACAGCAGAAGCGUUCACGUCGCAGCCCCAGGCAGGUUCUGGUGAAUCUGCGAACUCUGCUGUAUAUCUC [U41A U43G A47G U66C] | 0.26 |
